# From publication PMC6212790
# The other results are listed elsewhere or left out. At the low end of the ranking the order means little.
# Target: T1, GST-Rok (full length) (UniProt O34857)
# T1 sequence: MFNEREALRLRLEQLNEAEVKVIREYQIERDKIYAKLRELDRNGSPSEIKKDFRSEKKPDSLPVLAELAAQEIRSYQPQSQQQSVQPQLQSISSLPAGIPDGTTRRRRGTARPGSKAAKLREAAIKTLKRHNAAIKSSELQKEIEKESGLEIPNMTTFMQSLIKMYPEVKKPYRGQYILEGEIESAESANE
# Experiment: protein binding microarray;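 also: rank score from −0.5 (least bound) to 0.5 (best bound)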
# Conditions: Rok is a gene silencer of Bacillus subtilis; high values mean tight binding; most listed sequences are background and not binding sites; double strand, one strand shown
row,Sequence,binding signal [E-score]
1,GGATGCTA,0.155
2,CGGCGATA,0.0772
3,ACTTCTGA,0.145
4,GGTGCACC,-0.361
5,GTATGAAC,0.131
6,CCAGGCGC,-0.218
7,AGTCAAGG,-0.195
8,AGAAAAAC,0.0823
9,CTTATTAC,0.299
10,CGATAGTC,-0.0533
11,GCTCGCAA,-0.17
12,ACACCAGA,0.127
13,AGCTGAAG,0.0654
14,ACCGTAGC,-0.0206
15,AGATTGCC,0.0654
16,CTACTCCC,-0.0755
17,AGTGGTGA,0.0809
18,ACAAGCGA,-0.0201
19,GGCCGAAC,-0.324
20,CCAGGTGC,-0.241
21,AGTCATGG,0.19
22,GTAAATAA,0.234
23,CGCGGTCC,-0.283
24,CTTTTTTC,0.0367
25,GCCCTATA,-0.0695

row,Sequence,binding signal [E-score]
1,AAGCAGGG,-0.208
2,CTGCCCCC,-0.348
3,CGGACCGA,-0.124
4,CCCGCATA,-0.22
5,AGTCGCTA,0.14
6,GTTGTAAA,0.23
7,AACTTACC,0.174
8,GCCCGCTA,-0.315
9,GATGCCCC,-0.333
10,CTCTCTGC,-0.0927
11,TTAGAGAA,-0.0617
12,CCAGCTCA,-0.112
13,ACGGCCCT,-0.196
14,AGTGCAAG,0.148
15,GAGTGTCA,-0.0572
16,ACATAAGT,0.127
17,AGTGTGTC,0.069
18,TGGTGCAA,-0.0163
19,ACACAGGA,-0.106
20,GTGGAACA,-0.229
21,AACACGCG,-0.0773
22,AGACAACT,0.093
23,GAGGTCAC,-0.243
24,CTTTCCAA,-0.208
25,CTGTAAAG,0.124

row,Sequence,binding signal [E-score]
1,GTTATCAA,0.257
2,ACTCGACT,-0.0227
3,ATTGATTG,0.0266
4,AATAAAAA,0.217
5,GGTGAACA,0.193
6,ACAGCGAC,0.0346
7,CCCATCTA,0.0362
8,AGCGGGTG,-0.203
9,CACAGTGG,-0.16
10,ACGGTAAC,0.0635
11,CAGCGATA,-0.0515
12,CATGAGGA,-0.183
13,CATGGAAG,-0.127
14,CGGTCGCA,-0.056
15,GAATAAAC,0.0508
16,CATCCATA,0.185
17,AAGTCATA,0.0344
18,CAATGTAC,0.263
19,TAGGACGA,-0.211
20,ACAGGCGC,0.0267
21,GTCTAGAA,-0.0015
22,AATCCGTA,-0.00212
23,AGTTGATA,0.257
24,CGCCTACC,-0.12
25,CGAGTCGC,-0.14

row,Sequence,binding signal [E-score]
1,CCCGCGAC,-0.309
2,CGATGTCC,-0.123
3,AGGCCGCA,-0.381
4,CTTAGATA,0.262
5,TCACAGCA,-0.00318
6,CAGGCCAC,-0.18
7,AATACCAG,0.0344
8,AACTGATT,0.102
9,CCAAGCCA,-0.28
10,CACACTAA,0.178
11,CCATTACG,0.148
12,CAACGCTG,-0.0877
13,GGAGGTGA,-0.124
14,GAGGCGTA,-0.0959
15,CCACGCCA,-0.312
16,ATGCTAAG,0.111
17,AACGAGTT,0.296
18,GAAATAGC,0.107
19,AAGCGGGA,-0.219
20,CGCTATAA,0.134
21,CCTGATAG,-0.00748
22,GTTGCCAA,0.0981
23,GGGTCGAA,-0.241
24,CGTAGGGC,-0.412
25,CATTACGA,0.145

row,Sequence,binding signal [E-score]
1,GAGTTGAC,0.00651
2,CCGCTGCG,-0.292
3,ACAGGTTG,-0.129
4,AACCAACG,0.0361
5,AGGGGCTA,-0.332
6,TCGAAGAA,-0.123
7,GCCTACGA,-0.0129
8,ATACCGGG,0.208
9,GCTCCGGA,-0.102
10,ACCACGCA,-0.125
11,CGGACTCA,-0.0715
12,CTGGGAGC,-0.262
13,GTGAGGCA,-0.0545
14,CCGTAGGC,-0.2
15,AGGGAGAC,-0.272
16,ACCTGGGA,-0.267
17,CACTCGAG,-0.14
18,AAAGTGAA,-0.0164
19,AGGTGTCG,-0.1
20,AAAGCGGT,-0.0445
21,ACGGAAAA,0.136
22,GATGCAGA,0.0867
23,CTCCGTGA,0.05
24,CGGTGGGC,-0.289
25,AATTCCTG,0.177

row,Sequence,binding signal [E-score]
1,ACTTTGCT,0.0417
2,AAATGAAG,-0.00523
3,AGCACCAG,-0.18
4,CCGCGTGA,-0.0263
5,ATCAATTG,0.221
6,ATCGGATC,0.0732
7,CAAATCTA,0.377
8,ACATGTAG,0.338
9,AGTAGTTA,0.434
10,CTACTTCA,0.175
11,ACTGCTAA,0.122
12,CAAACTTG,0.0756
13,TGAGCGCA,-0.219
14,ATAACTGG,0.191
15,AACCCCGC,-0.394
16,CTTGAGAC,-0.0563
17,TCAGCCAA,-0.0964
18,CACGGGGA,-0.174
19,CGCCTAAA,-0.249
20,CGGGTTGA,-0.0591
21,CCCTCTGA,-0.247
22,AGTTCCAC,0.00523
23,ACAAGACA,-0.0301
24,ATTCCCAC,-0.0472
25,AGACGGCT,-0.17

row,Sequence,binding signal [E-score]
1,CAGGTTTA,-0.222
2,ATGGCGAC,-0.218
3,AACCCCGG,-0.24
4,TCCTCCAA,-0.119
5,GCTTAGCA,-0.109
6,GCACAGGA,-0.164
7,ATCAGGGC,-0.0319
8,CGTTCCTC,-0.0344
9,CTTACTGC,0.145
10,CGGAGACG,-0.164
11,CATTTACG,0.109
12,AGGAGCTG,-0.214
13,CCCGGAGG,-0.443
14,CATTCCAA,-0.00431
15,AAGTACTT,0.308
16,TGTGGAAA,-0.174
17,ACCAGACA,-0.0398
18,CTCTCCAG,-0.311
19,GCCAGGTA,0.0369
20,GATGGATA,0.0355
21,TAGAAATA,0.409
22,AGAGCGGG,-0.16
